Our source for the inhibition values is PubChem BioAssay AID485344 (National Center for Advancing Translational Sciences (NCATS), 2010).

Structures are written as SMILES. In all, about 340,000 compounds went through this assay and about 6,900 (2%) were called active. Cut-off read from the data, not from the text of the source: active = inhibition above about 30%; inactive = below that, where a call was filed. Only a part is listed here, and it is no random draw. Where no call is shown, the source filed none.

Sequence of UniProt P14416 (P14416 whole entry, looked up): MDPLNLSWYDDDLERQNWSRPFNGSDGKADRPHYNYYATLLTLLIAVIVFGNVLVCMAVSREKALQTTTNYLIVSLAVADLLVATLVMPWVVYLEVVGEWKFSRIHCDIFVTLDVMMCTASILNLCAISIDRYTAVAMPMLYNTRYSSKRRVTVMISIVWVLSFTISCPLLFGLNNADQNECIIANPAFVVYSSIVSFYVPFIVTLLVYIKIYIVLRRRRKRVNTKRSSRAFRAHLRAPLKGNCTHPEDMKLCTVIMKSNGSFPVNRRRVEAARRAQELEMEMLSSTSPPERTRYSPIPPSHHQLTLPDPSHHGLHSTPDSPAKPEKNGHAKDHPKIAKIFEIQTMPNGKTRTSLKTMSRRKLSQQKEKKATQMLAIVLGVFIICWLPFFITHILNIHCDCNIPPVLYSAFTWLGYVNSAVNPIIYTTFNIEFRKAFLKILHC

The assay addresses D(2) dopamine receptor (Homo sapiens) (UniProt P14416). Put plainly: HTS Assay for Allosteric Antagonists of the Human D2 Dopamine Receptor: Primary Screen for Antagonists. Note: 0% is about no effect. The conditions noted are these: HEK293 TREx D2 cells, calcium flux, dopamine EC80; at 10 µM; stronger effect = higher value. Summed up:
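Calcium flux kinetic readout in an inducible HEK293 TREx D2 line plated overnight at 30 C. After 180 s compound exposure, an EC80 dopamine challenge follows with another 180 s kinetic read to detect antagonism.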
For orientation: inhibition means the drop in the measured response relative to a control, in per cent. Consider `CCOC(=O)c1cc(-c2ccccc2)n(CCC(=O)NCCc2ccc(OC)c(OC)c2)c1C`, for which the inhibition worked out at 14.5%.

As to `COc1ccc(-c2nc3cc(NC(=O)c4cc5ccccc5o4)ccc3o2)cc1`, the inhibition turned out to be 4.07%. To `CCc1cccc(C)c1NS(=O)(=O)c1ccc(-c2cc(C)no2)s1` belongs -4.69%; to `COc1ccccc1NC(=O)CSc1nnc(-c2ccco2)n1N`, active: 33.9%; to `COc1ccc(-c2cccc(NS(=O)(=O)c3cc(C)ccc3OC)c2)nn1`, -0.495%.

Turning to `Cc1cccc(NC(=O)c2c(N)sc3c2CCC(C)C3)c1` (stereo unspecified), the inhibition is -8.36%. To `Cc1ccccc1NC(=O)c1c(NC(=O)c2cccs2)sc2c1CCC(C)C2` (stereo unspecified) belongs -5.4%.

Turning to `Cc1ccccc1Nc1c(-c2ccc(N3CCOCC3)cc2)nc2ccc(Cl)cn12`, the inhibition stood at 7.1%. Under `N#Cc1nc(/C=C/c2ccc(F)cc2)oc1NC1CCCCC1` stands 13.1%. Under `COc1ccc(C(=O)NCC(c2ccco2)S(=O)(=O)c2cccs2)cc1` (stereo unspecified) stands -13.7%; under `Cc1ccc(-c2nc3ncccc3o2)cc1NC(=O)c1ccc(-c2cccc(Cl)c2C)o1`, -2.99%. Under `CCc1cccc(C)c1NC(=O)c1cn2c3c(ccc(Cl)c3c1=O)OC(C)C2` (stereo unspecified) stands 6.26%; under `Cc1cccc(N2CCN(c3ncnc4onc(C)c34)CC2C)c1` (stereo unspecified), -7.33%. Turning to `Cc1nc(-c2cccc(F)c2)sc1CCNC(=O)C(=O)Nc1ccc2c(c1)OCO2`, the inhibition came out at 8.74%. Under `CCCCN(C)S(=O)(=O)c1cc(-c2cc(C)no2)ccc1C` stands 3.45%.

As to `CCOc1ccc(S(=O)(=O)NCC(c2ccc(N(C)C)cc2)N2CCc3ccccc32)cc1` (stereo unspecified), the inhibition was 2.79%. Turning to `Cc1cc(-c2nc3ncccc3o2)ccc1NC(=O)c1ccc(Cl)cc1`, the inhibition amounted to 8.44%. Under `COC(=O)CSc1ccc2nnc(CCNS(=O)(=O)c3ccccc3)n2n1` stands -7.33%. To `CCOc1ccc(NC(=O)c2c(NC(=O)c3ccccc3Br)sc3c2CCC(C)C3)cc1` (stereo unspecified) belongs 1.76%. Under `O=C(COC(=O)c1ccc(O)cc1O)Nc1ncc(Cl)cc1Cl` stands active: 31.1%; under `CCOc1ccc(NC(=O)CC2C(=O)N(c3ccc(C)cc3)C(=O)N2Cc2ccc(OC)cc2)cc1` (stereo unspecified), 11.5%.

`COc1ccc(OC)c(NC(=O)N(C)CCc2c(C)nn(C)c2C)c1`: the inhibition was found to be 18%. Under `O=C(NCCCCc1ccccc1)c1nn(-c2ccccc2)nc1CO` stands -9.69%; under `Cn1c(=O)oc2cc(S(=O)(=O)N3CCCC(C(=O)N4CCN(c5cccc(Cl)c5)CC4)C3)ccc21` (stereo unspecified), 0.297%; under `COc1ccc(NC(=O)Cn2nnc(C(=O)Nc3ccc(C)c(F)c3)c2N)cc1Cl`, -2.58%. To `CC1=C(C(=O)OCC2CCCCC2)C(c2cccc(F)c2F)CC(=O)N1` (stereo unspecified) belongs -3.06%; to `CCN1CCN(c2nc(Nc3ccc(OC)cc3)nc(N)c2[N+](=O)[O-])CC1`, active: 41.5%; to `COc1ccc(CNC(=O)CN(c2ccc(OC)cc2)S(=O)(=O)c2c(C)[nH]c(=O)[nH]c2=O)cc1`, -10.1%. Take `Cc1cc(C)cc(OCCn2c(CCNC(=O)C3CCCCC3)nc3ccccc32)c1`: the inhibition was -11.8%.

For `O=C(Cc1ccccc1F)N1CCC(c2nc3c(nnn3Cc3cccc(Cl)c3)c(=O)[nH]2)CC1`, the inhibition is -2.04%. To `Cc1ccc(-n2c(-c3ccco3)nc3c(cnn3-c3ccc(C)cc3)c2=O)cc1` belongs -19.3%. In the case of `CCOC(=O)c1ccc(NC(=O)c2c(NCc3cc(OC)c(OC)cc3OC)sc3c2CCCC3)cc1`, the inhibition is -10.4%. To `CCCc1cnc2c(c1SCC(=O)Nc1cccc(C)c1C)c(=O)n(C)c(=O)n2C` belongs 1.17%; to `CCOc1ccc(-c2nonc2NC(=O)COc2ccccc2)cc1`, 10.7%; to `CCN1CCN(c2cc3c(cc2F)c(=O)c(S(=O)(=O)c2cc(C)cc(C)c2)cn3CC)CC1`, -8.92%.

As to `O=C(NCCN1CCOCC1)c1ccc([N+](=O)[O-])cc1[N+](=O)[O-]`, the inhibition is active: 43%. To `CC1(C)CC(=O)c2cc(OCC(=O)NCCCN3CCN(c4ccccc4F)CC3)ccc2O1` belongs active: 81.8%; to `CCN(c1ccc(C)cc1C)S(=O)(=O)c1nnc(NC(=O)c2ccccc2OC)s1`, -18.1%; to `CCOC(=O)c1oc2ccc(S(=O)(=O)n3nc(-c4cc(OCC)c(OCC)c(OCC)c4)cc3N)cc2c1C`, -1.67%. To `CCOC(=O)c1ccc(NC(=O)CC2C(=O)N(c3ccccc3)C(=O)N2C2CCCCC2)cc1` (stereo unspecified) belongs 13.6%; to `CCOc1cccc(C(=O)Nc2ccc(NC(=O)c3ccc(Br)cc3)cc2)c1`, -0.195%. As for `O=C(CSc1oc(-c2ccco2)nc1S(=O)(=O)c1ccccc1)c1ccc(Cl)cc1`, the inhibition was determined as 1.29%. To `O=C(NCc1ccccc1C(F)(F)F)C1CC(c2cccc(F)c2)=NO1` (stereo unspecified) belongs active: 41.8%. Under `CCCN(CCC)CCCNC(=O)c1cn(CC)c2ccc(S(=O)(=O)N3CCc4ccccc4C3)cc2c1=O` stands -1.15%. Under `COc1cccc(CNCCSc2nnnn2C)c1OCc1ccc(Cl)cc1` stands 17.5%. Take `CC(C)c1ccc(NC(=O)C2CCCN(S(=O)(=O)c3ccc4[nH]c(=O)ccc4c3)C2)cc1` (stereo unspecified): the inhibition was determined as 4.69%. Regarding `CCc1ccc(Cn2nnc(C(=O)Nc3ccc(C)cc3)c2N)cc1`, the inhibition was -17.5%. For the compound `COc1cc(NC(=O)Cn2cnc3sc(C)c(S(=O)(=O)N4CCN(C)CC4)c3c2=O)cc(OC)c1OC`, the inhibition worked out at 5.47%. Under `Cc1ccc(Nc2c(-c3ccc(N4CCOCC4)cc3)nc3ncccn23)cc1C` stands -0.914%; under `CCOC(=O)c1ccc2c(c1)N(CC(=O)Nc1ccc(CC)cc1)C(=O)c1ccccc1S2`, -25.7%. Turning to `COc1ccccc1CNC(=O)c1c(O)nc2cc(C)ccn2c1=O`, the inhibition was -5.44%. `CCOC(=O)c1c(-c2ccc(OC)c(OC)c2)csc1NC(=O)c1ccc(F)cc1`: the inhibition is -8.32%. To `Cc1cccc(C(=O)Nc2ccccc2C(=O)OCc2cc(=O)n3nc(C4CC4)sc3n2)c1` belongs -9.46%. To `Cc1cc(C)c(S(=O)(=O)N2CCN(C(=O)C(C)Cn3nc(C)nc3C)CC2)c(C)c1` (stereo unspecified) belongs active: 35%; to `COc1cc2c(-c3ccccc3Cl)nc3c(c(C)nn3-c3ccccc3)c2cc1OC`, -0.309%. Under `CSC1=NC2(CCN(C(=O)NC3CCCCC3)CC2)N=C1c1ccc(C(C)(C)C)cc1` stands -2.98%; under `COc1cccc(N2C(=O)CSC23C(=O)N(CC(=O)NCc2ccc(C)cc2)c2ccccc23)c1` (stereo unspecified), -2.81%.

For `O=C(C1CCN(c2nc3ccccc3[nH]2)CC1)N1CCN(c2cccc(Cl)c2)CC1`, the inhibition stood at 13.2%. Under `Cc1cc(C(C)(C)C)c(O)c(C)c1CC1=NCCN1` stands active: 63.5%; under `Cc1cc(C)c2oc(C(=O)Nc3c(C(=O)Nc4ccccc4)oc4ccccc34)cc(=O)c2c1`, -6.39%; under `Cn1c(SCc2ccc(F)cc2)nc2ccc(C(=O)NCc3ccccc3)cc21`, -9.71%. To `CCCCn1cc(S(=O)(=O)c2ccc(Cl)cc2)c(=O)c2cc(F)c(N3CCCCC3)cc21` belongs 5.17%. Under `COc1ccc(C(=O)NCC(c2ccco2)S(=O)(=O)c2cccs2)cc1OC` (stereo unspecified) stands -5.56%. As for `Cc1ccnc(NS(=O)(=O)c2ccc(NC(=O)c3nc(SC(C)C)ncc3Cl)cc2)n1`, the inhibition was 5.35%. In the case of `CC(C)Oc1ccc(CNC(=O)Cn2ncn3nc(-c4cccs4)cc3c2=O)cc1`, the inhibition is -4.22%. Take `O=C(NCc1ccccc1Cl)c1cc2cccc3c2n1CCS3`: the inhibition is 7.41%.

`COc1cccc(CNC(=O)c2ccc3c(c2)nc2n3CCC(C)C2)c1OC` (stereo unspecified): the inhibition was -12.6%. To `CCOC(=O)C1CCCN(C(=O)c2[nH]c3ccccc3c2Sc2ccc(Cl)cc2)C1` (stereo unspecified) belongs 12.8%; to `Cc1cccc(NC(=O)NCCN2CCN(c3ccccc3)CC2)c1C`, active: 57%.

Take `Cc1[nH]c2ccccc2c1SCCNC(=O)c1ccccc1F`: the inhibition is -0.855%. Under `Cc1ccc(S(=O)(=O)N2CCC(n3c(C)nc4cccnc43)CC2)c(C)c1` stands 10.1%; under `CCOc1ccc(CCNC(=O)c2cc3sc(CC)cc3n2C)cc1OCC`, -12.9%. To `Cc1ccc(S(=O)(=O)c2cn(Cc3ccc(F)cc3)c3cc(N4CCCC4)c(F)cc3c2=O)cc1` belongs -5.37%; to `Cc1ccc(CNC(=O)c2ccc(-c3nc(CS(=O)(=O)c4ccc(C)cc4)c(C)o3)cc2)cc1`, -10.1%; to `O=C(CN1CCN(c2ccccn2)CC1)Nc1ccccc1`, active: 31.4%. Under `CCc1ccccc1NC(=O)C(=O)NCCc1sc(-c2cccc(F)c2)nc1C` stands -13.1%; under `O=C(NNC(=S)NCc1ccco1)c1ccc(Cl)s1`, active: 32.7%.

On to `COc1ccc(-n2nnc(-c3nc(-c4cccs4)no3)c2N)cc1`, for which the inhibition was 5.84%. To `Cc1ccc(C)c(NC(=O)Nc2cccc(-c3cn4cccnc4n3)c2)c1` belongs -10.8%.

`CC(C)(C)OC(=O)N1CCC(c2c(C(=O)N3CCOCC3)cnn2-c2cccc(F)c2)CC1`: the inhibition was determined as 5.42%. Under `Clc1cccc(OCCN2CCN(CCOc3cccc(Cl)c3)CC2)c1` stands active: 92.6%; under `Cc1oc(-c2ccccc2F)nc1CSc1nnc(C)n2c1cc1occc12`, 2.5%.

Take `COC(=O)c1ccccc1-n1cc2c(c1-c1cccc(C)c1)c(=O)n(C)c(=O)n2C`: the inhibition is 0.991%.

In the case of `Cc1nc(Cl)sc1C(=O)Nc1ccc(Cl)cc1`, the inhibition was active: 40.2%. As for `CCOC(=O)c1cnc2ccc(Cl)cc2c1Nc1ccc(N2CCOCC2)cc1`, the inhibition was determined as 10.4%. Under `O=C(Nc1ccc(C(=O)N2CCN(c3ccccc3)CC2)cc1)c1nsc2ccccc12` stands 12.3%. Under `COc1ccccc1NC(=O)NCC(c1ccco1)N1CCCCC1` (stereo unspecified) stands active: 38.8%; under `O=C(CSc1nc2c(c(=O)[nH]1)CN(Cc1ccc3c(c1)OCO3)CC2)Nc1ccc(F)c(F)c1`, 21%. As to `Cc1cccc(CCNC(=O)C2CCN(c3nc4ccccc4nc3C(F)(F)F)CC2)c1`, the inhibition was -1.49%. Turning to `CCC(C)NC(=O)CCc1c(C)nc2cc(-c3ccc(OC)cc3OC)nn2c1C` (stereo unspecified), the inhibition was -1.24%. Under `CCOC(=O)Cn1c(CN2CCN(c3cccc(Cl)c3)CC2)nc2c1c(=O)[nH]c(=O)n2C` stands active: 30.5%.

On to `COc1ccccc1-c1cc2nc(C)c(CCC(=O)Nc3cc(C)ccc3C)c(C)n2n1`, for which the inhibition was found to be 7.95%. Under `CCc1cccc(NC(=O)c2ccc(CNS(=O)(=O)c3ccc4c(c3)C(C)(C)C(=O)N4C)cc2)c1` stands 12.6%; under `Cc1ccc(-n2ncc3c(NCC(C)C)ncnc32)c(C)c1`, 12.1%; under `COc1c(Br)cc(Br)cc1/C=N/NC(=O)c1cccnc1`, active: 90.1%. On to `Cc1cccc(-c2nc3ccccc3n3c(-c4ccccc4)c4c(=O)n(C)c(=O)n(C)c4c23)c1`, for which the inhibition turned out to be 25.1%.
